# In all, about 360,000 compounds went through this assay and about 17,000 (4.7%) were called active. The inconclusive results got no clear call from the source; some entries with a clear call stand among them for comparison. Rule as the data show it: active = activity change below about -50%; inconclusive = mostly about -30% to -49%; inactive = weaker than that.
# Assay: qHTS for Inhibitors of Inflammasome Signaling: IL-1-beta AlphaLISA Primary Screen
# Settings: THP-1 LPS/ATP IL-1B secretion, 16 h; at 57.5 µM, stronger effect = lower value
# How it was run: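 THP-1 cells pretreated 1 hr with compounds (up to 57.5 uM final), then stimulated with LPS (250 ng/mL final) plus ATP (1.25 mM final); secreted IL-1B measured by AlphaLISA after 16 hr, decreased signal indicating inhibition.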
# % is scaled to controls: 0 for no effect and ±100 for the full control effect.
row,Structure (SMILES),activity change
1,CCOC(=O)CCN(C(=S)Nc1ccccc1)C1CCCCC1,inactive: 0.318%
2,O=C(c1ccco1)N1CCN(CC(O)COc2ccc(Br)cc2)CC1 (stereo not drawn),inconclusive: -44.5%
3,COc1ccccc1N1CCN(C(=O)c2ccc(COc3cccc4c3OC(C)(C)C4)cc2)CC1,inconclusive: -30.9%
4,C[C@H](CO)N1C[C@H](C)[C@@H](CN(C)C(=O)Nc2ccccc2)Oc2cc(Br)ccc2S1(=O)=O,inactive: 0.0876%
5,Cc1ccc(S(=O)(=O)N(C)C)cc1NC(=O)C(C)N(C)Cc1sccc1C (stereo not drawn),inconclusive: -47.6%
6,Cc1cccc(CSCCNC(=O)c2ccc(N(C)S(=O)(=O)c3ccccc3)cc2)c1,inconclusive: -39.7%
7,Cc1nn(C)cc1/C=N/NC(=O)Cn1nnc(N)n1,inactive: 6.17%
8,Cc1nnc2ccc(-c3cccc(NC(=O)Cc4cccs4)c3)nn12,inconclusive: -33%
9,CC1CCN(CCOc2ccc(OCc3ccccc3)cc2)CC1,inconclusive: -40%
10,CCc1[nH]nc(C(=O)N2CCCC(C(=O)c3cccc(OC(C)C)c3)C2)c1C (stereo not drawn),inconclusive: -41%
11,CCCCCn1c(SCc2ccncc2)nc2cc(C(=O)NCc3ccco3)ccc2c1=O,inconclusive: -49.1%
12,CSc1ccc(CN2CCC(n3nccc3NC(=O)c3ccccc3C)CC2)cc1,inconclusive: -32.8%
13,Cc1cc(OCCCCCNCCO)cc(C)c1Cl,inconclusive: -32.6%
14,COc1ccc(-c2[nH]ncc2CN(CCO)CC23CC4CC(CC(C4)C2)C3)c(OC)c1,inconclusive: -47.4%
15,C#CCOCCOCCOCCNc1nc(N2CCN(C(=O)CCCCCCCCCCNC(=O)[C@@H](CCC(=O)O)n3cc(CCCCCN)nn3)CC2)nc(N2CCN(C(=O)CCCCCCCCCCNC(=O)[C@H]([C@@H](C)CC)n3cc(CCCCCN)nn3)CC2)n1,active: -94.6%
16,Cc1ccc(C(OCC(O)CN2CCCCC2)c2ccccc2)cc1 (stereo not drawn),inconclusive: -42.1%
17,CN(CC(=O)N1CCOCC1)S(=O)(=O)c1ccc2ccccc2c1,inconclusive: -46.7%
18,Cn1nc(C(=O)Nc2ccccc2Cl)cc1C(=O)Nc1ccccc1Cl,active: -55.1%
19,O=C(CCCN1C(=O)/C(=C\c2ccccc2)SC1=S)Nc1cccc(C(=O)O)c1,inactive: -1.71%
20,COc1ccc(NC(=O)[C@@H]2CC=C[C@@H]3CCN(Cc4ccc(Cl)c(Cl)c4)C(=O)[C@@H]32)cc1,inconclusive: -41.1%
21,CCCCC[C@H](C)N1C[C@H](COCc2ccccc2)Oc2cc(N3CCC[C@@H]3CO)ccc2S1(=O)=O,inconclusive: -46.4%

row,Structure (SMILES),activity change
1,CCn1cc(C(=O)O)c(=O)c2cnc(N3CCN(C(=S)NC(=O)c4ccccc4)CC3)nc21,inconclusive: -45.3%
2,O=C(CSc1nncn1-c1ccccc1F)NC1CCCCC1,inactive: -6.69%
3,CC12CCC(=O)N1C(C(=O)NCc1ccc(Cl)cc1Cl)CS2 (stereo not drawn),inactive: -4.44%
4,CCCNC(=S)N(Cc1cc2cc(C)ccc2n2nnnc12)CC(C)(C)CN(C)C,inconclusive: -43.4%
5,COc1ccccc1CNC(=O)COC(=O)c1ccc2c(=O)n3c(nc2c1)CCCCC3,inactive: -8.42%
6,CSCCC(NC(=O)CCC(=O)OCC(=O)[C@@]1(O)CCC2[C@@H]3CCC4=CC(=O)C=C[C@]4(C)C3[C@@H](O)C[C@@]21C)C(=O)O (stereo partly drawn),active: -54.8%
7,Cc1ccc(-c2cccc(CN3CCN(C4CCN(C(C)C)CC4)C(CCO)C3)c2)o1 (stereo not drawn),inconclusive: -35.1%
8,Cc1c(C)n(C)c2ccc(C(=O)NCc3cccs3)cc12,inconclusive: -34.7%
9,CCCCn1nc2cc(C(=O)NCc3ccc4c(c3)OCO4)ccc2c1OCC,inconclusive: -38.4%
10,CCOC(=O)c1ccc(NC(=O)CSc2nc(=O)n(CCN3CCOCC3)c3c2CCC3)cc1,inconclusive: -30.5%
11,COc1cc(OC)c(NC(=S)Nc2cccc(C)c2)cc1Cl,inactive: -12.4%
12,N#CC1=C(N)Oc2cc(Nc3ccccc3)ccc2C1c1ccncc1 (stereo not drawn),active: -78.2%
13,O=C(COC(=O)COc1ccccc1)Nc1ccc(Cl)cn1,inactive: 14.1%
14,COc1ccc(NC(=O)Nc2ccccc2)cc1S(=O)(=O)N1CCCCC1,inconclusive: -34.2%
15,COC(=O)c1ccc(CSc2nnc(-c3ccncc3)n2Cc2ccccc2)o1,inconclusive: -31.6%
16,CCCCCCC(=O)N(O)C1CC(=O)N(c2ccc(Br)cc2)C1=O (stereo not drawn),active: -81.7%
17,O=C(O)/C=C/C(=O)Nc1ccc2c(c1)C(=O)c1ccccc1C2=O,inactive: 1.07%
18,Clc1cccc(-c2nc3ccc(Br)cn3c2Cc2ccsc2)c1,inactive: 89.3%
19,Cc1cccc(N2CCN(C(=O)CCC(=O)N3Cc4ccccc4Oc4ncccc43)CC2)c1C,inconclusive: -46.4%
20,C[C@H]1CN([C@@H](C)CO)S(=O)(=O)c2ccc(Br)cc2O[C@@H]1CN(C)S(=O)(=O)c1ccccc1F,inactive: -21.4%
21,Cn1cnnc1Sc1ccc(C(=O)OCC(=O)Nc2ccccc2)cc1[N+](=O)[O-],inactive: -2.64%

row,Structure (SMILES),activity change
1,CC(C)Cc1cc(C(=O)Nc2sc3c(c2C#N)CCCC3)no1,inactive: -2.07%
2,C[C@@H]1CN([C@H](C)CO)C(=O)c2cc(/C=C/c3ccccc3)cnc2O[C@H]1CN(C)C(=O)NC1CCCCC1,inconclusive: -31.1%
3,O=C(NCCCN1CCOCC1)c1cc2c(s1)-c1ccccc1OC2,inconclusive: -41.8%
4,OCCC1CN(Cc2ccc(F)cc2Cl)CCN1CCc1ccccc1 (stereo not drawn),inconclusive: -47.5%
5,Cc1nc(Br)c(Br)c(C)c1Br,inactive: -5.05%
6,Cn1c(SCC(=O)Nc2ccc3[nH]c(=O)[nH]c3c2)nnc1-c1ccc(F)cc1,inactive: 19.4%
7,COc1ccccc1NC(=O)CCNS(=O)(=O)c1ccc2[nH]c(=O)oc2c1,inactive: 11.9%
8,CCCCOc1ccc(C(=O)N/C(=C/C=C/c2ccccc2)C(=O)NCCCO)cc1,inconclusive: -39.7%
9,Cc1ccc(/C=N/NC(=O)c2nnn(-c3nonc3N)c2CSc2ccccc2)o1,inconclusive: -30.4%
10,N#CC(C#N)=C(Nc1ccc(F)cc1)SCc1cccc(F)c1,inconclusive: -30.5%
11,CCCOP(=O)(c1ccc(N(C)C)cc1)C(O)c1ccc(Cl)cc1Cl (stereo not drawn),active: -79.1%
12,Cc1cc2ccccn2c1C(=O)c1ccc(S(=O)(=O)N(C)C)cc1,inconclusive: -33.7%
13,O=C(Nc1ccccc1)c1ccccc1NC(=O)C(F)(F)F,inconclusive: -48.4%
14,N#Cc1ccc(N=c2ssnc2Cl)cc1,inconclusive: -32.1%
15,COc1ccc2[nH]c3c(c2c1)CC(C)NC3=O (stereo not drawn),inconclusive: -31.7%
16,COc1ccc(C2=NS(=O)(=O)N(C)C(C(=O)NCc3ccccc3)=C2)cc1OC,inactive: -11.5%
17,O=C1OCCC1=CN1CCCCC1,inactive: -11.5%
18,COc1ccc(NC(=O)N(C)C[C@H]2Oc3c(NC(=O)Nc4ccc(C(F)(F)F)cc4)cccc3C(=O)N([C@H](C)CO)C[C@@H]2C)cc1,inconclusive: -39.7%
19,Cc1ccc(-c2nnc(-c3cccnc3)o2)cc1,inconclusive: -33.1%
20,C=CCn1cc(/C=N/Nc2nc3ccccc3[nH]2)c2ccccc21,active: -94.8%
21,Cc1cc(C)cc(NC(=O)Nc2ccc3c(c2)N(C)C(=O)CS3)c1,active: -50.2%

row,Structure (SMILES),activity change
1,O=S(=O)(c1cccc(Cl)c1Cl)N1CCN(C(=S)NCCCN2CCOCC2)CC1,active: -73.9%
2,O=C(CN1C(=O)S/C(=C/c2ccncc2)C1=O)N1CCOCC1,inconclusive: -49%
3,CCC1=C(OC(=O)N(CC)CC)N2C(=O)OC(=NCCc3c[nH]c4ccccc34)[C@]2(Cc2ccccc2)[C@H]2C1=CC[C@H]1C(=O)NC(=O)[C@H]12,inconclusive: -38.8%
4,Cc1cc(N/N=C\c2ccccc2)nc(-c2ccccc2O)n1,inconclusive: -43%
5,Cc1ccccc1C(OCCN(C)C)C1CCCCC1 (stereo not drawn),active: -55.7%
6,COc1ccc(Nc2nnc(-c3ccc(C(N)=O)cc3)c3ccccc23)cc1,inconclusive: -44.6%
7,COc1ccc(-c2[nH]ncc2N=Nc2cc(C)cc(C)c2)cc1,active: -91.7%
8,Cc1ccc2cc3cc(C(=O)NCCCN4CCCC4)oc3nc2c1,active: -50.8%
9,CCOc1ccccc1C(=O)N[C@H](C(=O)OCc1csc(CC(=O)Nc2ccc(C)cc2)n1)C(C)C,inconclusive: -38.6%
10,COc1cc(OC)c(C(=O)Nc2ccccc2-c2ccccc2)cc1OC,inconclusive: -34.8%
11,Cc1ccc(N2C(N)=C(C#N)C(c3ccsc3)C3=C2CC(C)(C)CC3=O)cc1 (stereo not drawn),active: -55%
12,O=C(COc1ccc(Cl)cc1)Nc1cc2c3c(c1)CC(=O)N3CCC2,inactive: 15%
13,CC(C)=CCc1c2c(c(O)c3c(=O)c4c(oc13)-c1cc(O)c(O)cc1OC4C=C(C)C)C=CC(C)(C)O2 (stereo not drawn),inactive: 1.79%
14,O=C(/C=C/c1ccccc1)NCCS(=O)(=O)N1CCN(c2ccccc2F)CC1,inactive: -4.56%
15,Cc1nc2[nH]c(=O)c3c(n2n1)NC1=C(C(=O)CC(C)(C)C1)C3c1ccc(F)cc1 (stereo not drawn),inconclusive: -30.9%
16,CCCn1c(NCc2ccc3c(c2)OCO3)nc2ccccc21,inconclusive: -32.6%
17,Nc1ccc(S(=O)(=O)Nc2nccc(/C=C/c3ccccc3F)n2)cc1,inconclusive: -41.2%
18,NS(=O)(=O)c1cccc(NC(=O)COC(=O)CC2CC3CCC2C3)c1 (stereo not drawn),inactive: -1.32%
19,CSc1nc(N)c2c(n1)OC(N)=C(C#N)C2c1cccnc1 (stereo not drawn),inconclusive: -35.6%
20,COc1ccc(-c2csc(NC(=O)c3c(C)noc3C)n2)cc1OC,inconclusive: -40.1%

# Reference: PubChem BioAssay AID743279 (National Center for Advancing Translational Sciences (NCATS), 2014)
